The campaign covered roughly 310,000 compounds. About 14,000 (4.5%) showed an effect of 50% or more. Effects have a minus sign here. Some of the results follow.
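Also: peak tail current of the secondary pulse compared with the same well before compound.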

human ether-à-go-go-related gene (hERG) potassium channel, sequence (Q12809 whole entry, looked up): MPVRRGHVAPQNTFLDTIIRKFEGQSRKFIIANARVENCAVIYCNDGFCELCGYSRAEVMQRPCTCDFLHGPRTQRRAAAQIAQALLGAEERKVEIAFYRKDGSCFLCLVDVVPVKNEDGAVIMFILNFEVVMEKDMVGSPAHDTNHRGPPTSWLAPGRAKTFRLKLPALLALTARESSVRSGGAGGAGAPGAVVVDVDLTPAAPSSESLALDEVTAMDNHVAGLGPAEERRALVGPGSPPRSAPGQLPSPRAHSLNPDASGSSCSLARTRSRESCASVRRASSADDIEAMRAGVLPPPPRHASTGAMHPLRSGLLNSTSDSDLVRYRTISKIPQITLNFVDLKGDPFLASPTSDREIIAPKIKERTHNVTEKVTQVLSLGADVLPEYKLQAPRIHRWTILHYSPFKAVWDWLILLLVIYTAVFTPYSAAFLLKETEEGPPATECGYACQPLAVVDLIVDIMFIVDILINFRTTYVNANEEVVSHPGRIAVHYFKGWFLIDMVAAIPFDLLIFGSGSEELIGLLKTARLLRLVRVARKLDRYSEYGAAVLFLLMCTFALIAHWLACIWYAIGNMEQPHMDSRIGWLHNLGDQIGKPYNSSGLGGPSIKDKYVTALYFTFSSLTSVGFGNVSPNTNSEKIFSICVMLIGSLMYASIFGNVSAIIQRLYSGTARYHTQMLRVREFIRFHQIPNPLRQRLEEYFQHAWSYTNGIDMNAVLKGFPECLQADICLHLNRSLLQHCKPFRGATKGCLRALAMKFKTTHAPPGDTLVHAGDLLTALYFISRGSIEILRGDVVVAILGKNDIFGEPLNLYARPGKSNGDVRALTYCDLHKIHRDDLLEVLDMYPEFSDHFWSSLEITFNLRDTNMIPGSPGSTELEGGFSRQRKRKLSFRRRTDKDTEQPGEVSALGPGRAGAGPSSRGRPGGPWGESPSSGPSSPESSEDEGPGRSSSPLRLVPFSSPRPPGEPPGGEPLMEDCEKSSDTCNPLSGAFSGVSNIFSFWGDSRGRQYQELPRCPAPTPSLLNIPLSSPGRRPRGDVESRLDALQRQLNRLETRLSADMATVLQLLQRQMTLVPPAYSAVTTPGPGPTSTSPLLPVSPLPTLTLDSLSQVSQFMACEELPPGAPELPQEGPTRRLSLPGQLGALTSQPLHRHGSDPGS

This test addresses human ether-à-go-go-related gene (hERG) potassium channel (human, UniProt Q12809). The test is described as follows: primary screen, population patch clamp on CHO cells stably expressing hERG.
Take `CCOC(=O)c1ccccc1NC(=O)CSc1nc2ccccc2n1CC(=O)N1CCCC1`: the “hERG current change (%, negative = inhibition) at 10uM” value is -46.2%.
As to `CCc1ccc(OCCNC(=O)OCc2ccccc2)cc1`, the “hERG current change (%, negative = inhibition) at 10uM” value was -9.08%.
In the case of `O=C(NCc1ccc(Cl)cc1)c1cc2c(s1)CS(=O)(=O)C2` it was -15.1%; in that of `Cc1n[nH]c(=O)c2c(NC(=O)CSc3cc(Cl)ccc3Cl)oc(C)c12`, -10.9%; in that of `O=C(CSc1nnc(-c2ccccc2)n1-c1ccc(Cl)cc1)N/N=C/c1ccccc1C(=O)O`, 7.8%.
To `COc1ccc(CCN2CNc3c(c(=O)n(C)c(=O)n3C)C2)cc1OC` belongs 7.08%; to `CN(C(=O)COC(=O)c1nc(-c2ccccc2)n(-c2ccccc2)n1)C1CCS(=O)(=O)C1` (centres unmarked), 17.2%.
In the case of `CC[n+]1c(C)cc(C)n1-c1ccccc1.[I-]` it was -3.39%.
Take `CCOC(=O)Cc1[nH]nc2c1C(c1ccoc1)C(C#N)=C(N)O2` (centres unmarked): the “hERG current change (%, negative = inhibition) at 10uM” value is -8.23%.
To `CCOc1cc([N+](=O)[O-])c2nc(N)sc2c1` belongs 8.54%.
To `COC(=O)[C@H](Cc1ccccc1)NC(=O)c1ccc2ccccc2n1` belongs -25.1%; to `CCOc1ccc(N2C(=O)C3=C(C(c4ccc(Cl)cc4)=NCCN3)C2c2cccnc2)cc1` (centres unmarked), -40.1%.
For `COc1cc(/C=C(\C#N)C(=O)NCc2ccccc2)ccc1OCc1ccc(C(=O)O)cc1`, the “hERG current change (%, negative = inhibition) at 10uM” value is on record as -12.4%.
To `CCN(Cc1ccccc1)S(=O)(=O)c1ccc(OC)cc1` belongs -19.9%; to `Cc1cc(C(=O)CN2C(=O)c3ccccc3S2(=O)=O)c(C)n1C(C)C`, -9.98%.
To `O=C(NC1CCCCCCC1)C1CCN(S(=O)(=O)N2CCCC2)CC1` belongs -2.62%; to `Cc1ccc(C)c(OCc2nc3ccccc3[nH]2)c1`, -2.46%.
In the case of `CNC(=O)OCCc1nccn1C` it was -0.422%; in that of `O=C(NCCN1CCOCC1)/C(=C\c1ccccc1Cl)NC(=O)c1ccccc1`, -16.2%.
For `Cc1ccccc1-c1cccc(CN2CCN(C)C(CCO)C2)c1` (centres unmarked), the “hERG current change (%, negative = inhibition) at 10uM” value is -21.6%.
Turning to `CCc1nnc(NC(=O)CSc2nccn2-c2cccc(C)c2)s1`, the “hERG current change (%, negative = inhibition) at 10uM” value is recorded as 4.62%.
For the molecule `CC(=O)Oc1cccc(C(=O)Nc2c[nH]c(=O)[nH]c2=O)c1`, the “hERG current change (%, negative = inhibition) at 10uM” value was 15%.
In the case of `Cl.O=C(Nc1ncc([N+](=O)[O-])s1)c1cccs1` it was 19.5%; in that of `CCc1ccc(C2=NN(C(=O)CCC(=O)O)C(c3cccs3)C2)cc1` (centres unmarked), 15.9%.
In the case of `Cc1cccc(NS(=O)(=O)c2coc(C(N)=O)c2)c1C` it was 6.97%.
`O=C1/C(=C\c2ccc3c(c2)OCO3)CCC/C1=C/c1ccc2c(c1)OCO2`: the “hERG current change (%, negative = inhibition) at 10uM” value worked out at 4.71%.
To `Cc1cc([N+](=O)[O-])cc2c1NC(=O)C2(O)N1CCCC(C)C1` (centres unmarked) belongs -0.731%; to `COC(=O)c1cccc(Cn2nc(C)c([N+](=O)[O-])c2C)c1`, 27.3%.
To `COc1ccc(S(=O)(=O)N2CCC(C(=O)Nc3cc(Cl)ccc3N3CCOCC3)CC2)cc1OC` belongs 3.97%; to `CC(=O)Oc1ccc2occ(C(=O)c3cccs3)c2c1`, 7.7%.
In the case of `CCCN(C(=O)COC(=O)c1cc(CC)c(C)s1)c1c(N)n(Cc2ccccc2)c(=O)[nH]c1=O` it was 18.4%; in that of `COC(=O)c1ccc(CN2CCc3ccccc32)cc1`, 14.8%; in that of `COc1ccc(NC(=O)C2CC(c3c(F)cccc3Cl)=NO2)cc1OC` (centres unmarked), 10.8%.
With `C/C(=N\N1CCN(c2ccc(Cl)cc2)CC1)c1cccc([N+](=O)[O-])c1`, the “hERG current change (%, negative = inhibition) at 10uM” value is given as -12.4%.
As to `CS(=O)(=O)Nc1cccc(C2=NN(S(=O)(=O)c3ccccc3)C(c3cccs3)C2)c1` (centres unmarked), the “hERG current change (%, negative = inhibition) at 10uM” value is given as -1.94%.
In the case of `CN(C(=O)COC(=O)COc1ccccc1F)C1CCS(=O)(=O)C1` (centres unmarked), the “hERG current change (%, negative = inhibition) at 10uM” value stood at 2.55%.
In the case of `CC(=O)Nc1ccc(-n2nnnc2SCC(=O)NC2CCCC2)cc1` it was 3.75%; in that of `CC(Sc1nnc(-c2ccco2)n1N)C(=O)NCC1CCCO1` (centres unmarked), 1.53%; in that of `COCCNC(=O)C(=O)NNS(=O)(=O)c1ccc(Cl)cc1`, 30.9%.
For the molecule `COc1ccccc1CCC(=O)Nc1cccc(S(=O)(=O)N2CCOCC2)c1`, the “hERG current change (%, negative = inhibition) at 10uM” value is recorded as -13.6%.
As to `COC(=O)c1ccccc1NC(=O)COC(=O)c1cccnc1`, the “hERG current change (%, negative = inhibition) at 10uM” value amounted to 6.42%.
As to `CCOC(=O)C1CCCN(C2CCN(Cc3nc(Cc4ccccc4)no3)CC2)C1` (centres unmarked), the “hERG current change (%, negative = inhibition) at 10uM” value is on record as -60.3%.
In the case of `Cc1ccc(-c2csc(Nc3ccc(S(N)(=O)=O)cc3)n2)o1` it was 15.5%; in that of `Nc1n[nH]c(N)c1N=Nc1cccc(C(F)(F)F)c1`, 4.44%; in that of `O=C(CN1C(=O)N/C(=C\c2ccccc2OCc2ccc(C(=O)O)cc2)C1=O)Nc1ccc(F)cc1`, 12.3%.
In the case of `COc1ccc(-c2cc(N3C(=O)Nc4ccccc4N3O)n[nH]2)cc1` it was 4.35%; in that of `CN(C(=O)CSc1nc2ccccc2c(=O)n1-c1ccc(F)cc1)C1CCS(=O)(=O)C1` (centres unmarked), -12.4%.
To `O=C(Nc1c2c(nn1-c1ccc(F)cc1)CS(=O)(=O)C2)C1CCCC1` belongs 18.1%; to `Cc1nn(Cc2ccc(C(=O)Nc3nccs3)cc2)c(C)c1Cl`, 22.3%.
As to `COC(=O)C1=C(C(=O)OC)[C@@H]2N(C)c3ccc(OC)cc3[C@@]23C[C@@H](C(=O)OC)N(C(=O)NCCBr)C3=N1`, the “hERG current change (%, negative = inhibition) at 10uM” value is reported as -32.9%.
To `CCCc1nc2ccccc2n1CCOC` belongs 21.8%; to `COC(=O)CN1C(=S)N(c2ccc(F)cc2)C(=O)C1CC(=O)Nc1ccc(OC)cc1` (centres unmarked), 2.98%; to `CCN(C(=O)CSc1nnc(Nc2cccc(C)c2C)s1)C1CCS(=O)(=O)C1` (centres unmarked), -29.3%.
As to `CC(C(=O)Nc1ccc(Br)cc1)N(C)CC(=O)NCc1ccco1` (centres unmarked), the “hERG current change (%, negative = inhibition) at 10uM” value is -31.3%.
For the molecule `CCN(c1ccccc1)S(=O)(=O)c1ccc(Cl)c(C(=O)O)c1`, the “hERG current change (%, negative = inhibition) at 10uM” value was determined as 13.7%.
In the case of `Cc1cc(-c2nnc(CCC(=O)N(C)CCc3ccccc3)o2)no1` it was 5.71%.

The values above are taken from paper PMC4336329 (PLoS ONE, 2015).
